# Measurements: publication PMC4336329 (PLoS ONE, 2015)
# The whole screen tested about 310,000 compounds, of which about 2,200 (0.71%) showed an effect of 50% or more. Effects have a minus sign here. Some of the results follow.
# Molecular target: human ether-à-go-go-related gene (hERG) potassium channel (human, UniProt Q12809)
# Test: primary screen, population patch clamp on CHO cells stably expressing hERG
# Chain of human ether-à-go-go-related gene (hERG) potassium channel (Q12809 whole entry, looked up): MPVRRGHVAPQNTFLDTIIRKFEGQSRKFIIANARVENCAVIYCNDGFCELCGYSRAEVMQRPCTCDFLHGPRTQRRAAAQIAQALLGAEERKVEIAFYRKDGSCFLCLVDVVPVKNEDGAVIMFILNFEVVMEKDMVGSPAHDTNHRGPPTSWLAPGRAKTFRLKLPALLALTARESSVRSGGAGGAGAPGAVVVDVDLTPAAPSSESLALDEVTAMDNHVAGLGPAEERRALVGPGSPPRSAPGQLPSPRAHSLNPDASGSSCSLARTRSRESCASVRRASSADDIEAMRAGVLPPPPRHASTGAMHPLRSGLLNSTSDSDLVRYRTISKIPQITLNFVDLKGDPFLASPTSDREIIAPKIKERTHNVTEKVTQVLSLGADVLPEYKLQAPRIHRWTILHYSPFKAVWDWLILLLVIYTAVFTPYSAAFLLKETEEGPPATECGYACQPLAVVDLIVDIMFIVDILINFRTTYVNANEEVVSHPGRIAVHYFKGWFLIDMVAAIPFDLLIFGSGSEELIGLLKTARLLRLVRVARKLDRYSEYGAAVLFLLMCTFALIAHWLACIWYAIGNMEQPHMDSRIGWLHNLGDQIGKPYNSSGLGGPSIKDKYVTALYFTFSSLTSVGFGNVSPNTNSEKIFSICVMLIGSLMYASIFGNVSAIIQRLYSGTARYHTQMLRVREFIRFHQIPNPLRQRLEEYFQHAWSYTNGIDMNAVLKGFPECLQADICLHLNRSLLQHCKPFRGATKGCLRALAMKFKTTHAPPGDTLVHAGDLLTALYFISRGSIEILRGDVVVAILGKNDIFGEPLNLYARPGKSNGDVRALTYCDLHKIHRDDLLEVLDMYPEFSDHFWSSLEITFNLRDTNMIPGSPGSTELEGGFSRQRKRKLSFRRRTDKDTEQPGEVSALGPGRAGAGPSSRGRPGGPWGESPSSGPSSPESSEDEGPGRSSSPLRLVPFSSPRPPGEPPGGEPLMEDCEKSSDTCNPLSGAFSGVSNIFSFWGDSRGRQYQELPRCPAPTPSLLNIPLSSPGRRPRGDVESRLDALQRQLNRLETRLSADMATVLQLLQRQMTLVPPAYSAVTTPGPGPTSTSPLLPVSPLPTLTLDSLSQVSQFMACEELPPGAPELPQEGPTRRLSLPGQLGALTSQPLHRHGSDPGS
row,SMILES,"hERG current change (%, negative = inhibition) at 1uM [%]"
1,CNC(=O)COc1coc(CN2CCN(c3cccc(Cl)c3)CC2)cc1=O,6.54
2,COc1ccc(-n2c(COc3cccc4ccccc34)nnc2SCC(=O)NCc2ccco2)cc1,-9.36
3,Cc1cc(C)c(S(=O)(=O)N2CCCCCC2)cc1Br,9.28
4,CCn1nnnc1NCc1ccc(N2CCCC2)cc1,4.26
5,CCCC(=O)Nc1cc(=O)n(C)c(=O)n1C,2.02
6,CCCCN1C(=N)C(CC)(CC)C(=O)NC1=O.Cl,27.4
7,COc1ccc(NC(=O)c2oc3ccccc3c2NC(=O)C2CC2)cc1OC,7.42
8,Cc1csc(NC(=O)CSc2nnc(NC(=O)NC(C)(C)C)s2)n1,3.92
9,O=C1c2ccccc2C(=O)N1Cc1nc2ccccc2c(=O)n1-c1ccc(Br)cn1,-0.56
10,Br.COc1ccc(-c2cn3cc(Cl)ccc3n2)cc1OC,8.85
11,CCN(CC)C(=O)C1CCN(Cc2ccc(OCc3ccccc3)cc2)CC1.O=C(O)C(=O)O,-13.3
12,Cc1ccc[n+](CC(=O)/C=C2\N(C)c3ccccc3C2(C)C)c1.[Cl-],10.4
13,O=C(NCCCN1CCCC1=O)c1cccc(C(F)(F)F)c1,5.99
14,COC(=O)C1=C(c2ccc(OC)c(OC)c2)C[C@@H]2CC[C@H]1N2C(=O)N1CCCCC1,11
15,CCCCCCC[n+]1ccc(-c2cc[n+](CCCCCCC)cc2)cc1.[I-],0.751
16,Clc1ccc(C2NCCc3sccc32)cc1 (stereo not shown),3.2
17,O=C(COc1ccc(S(=O)(=O)N2CCOCC2)cc1)N1CCN(Cc2ccc3c(c2)OCO3)CC1,-1.37
18,Clc1ccc(C2Nc3cccc4cccc(c34)N2)cc1Cl,19.6
19,COc1ccc2[nH]cc(CCN=C3SCC(=O)N3C)c2c1,12.1
20,COc1cc(/C=C2\CCC(C3CCCC3)C2=O)cc(OC)c1OC (stereo not shown),13.2

row,SMILES,"hERG current change (%, negative = inhibition) at 1uM [%]"
1,O=C(NC(=S)N1CCN(c2ccc([N+](=O)[O-])cc2)CC1)c1ccccc1F,-0.874
2,FC(F)(F)c1nnc(-c2ccccc2)nc1N1CCCC1,14.8
3,C=CCn1c(=NC(=O)C2COc3ccccc3O2)sc2cccc(OC)c21 (stereo not shown),21.1
4,COc1cc(CNC(C)c2ccccc2)c(Br)cc1OCC(N)=O (stereo not shown),-12.9
5,O=C(O)C1C2C=CC(C2)C1C(=O)NCc1ccc(Cl)c(Cl)c1 (stereo not shown),1.51
6,O=C(OCC(=O)N1CCN(C(=O)c2ccco2)CC1)c1cncc(Br)c1,6.76
7,CCOC(=O)C1=C(CN2c3ccccc3CC2C)NC(=O)NC1c1ccccc1 (stereo not shown),5.1
8,COc1ccc(CCNC(=O)C2CC(c3ccccc3F)=NO2)cc1 (stereo not shown),4.69
9,COc1ccc(-c2cn3c(C)c(C(=O)Nc4cc(NC(C)=O)ccc4OC)sc3n2)cc1,11.1
10,CC(=O)Nc1nc(N(C)C)nc(N(C)C)n1,40
11,CCOC(=O)C1CCN(c2c(NC3CCCc4ccccc43)c(=O)c2=O)CC1 (stereo not shown),-0.516
12,Clc1ccc(-c2noc(CN3CCCC3)n2)cc1,6.91
13,O=c1[nH]c(Nc2ccc3c(c2)OCCO3)nnc1Cc1ccccc1,9.82
14,CN(C)c1ccc(N=Nc2cccc(F)c2)cc1,3.51
15,COc1ccccc1NC(=O)c1c(NC(=O)c2ccco2)sc2c1CCC2,9.16
16,O=C(CNC(=O)c1ccc(Br)cc1)NCC(=O)OCc1ccc(Cl)cc1,5.88
17,C=CCn1c(SCC(=O)Nc2ccccc2C)nc2sc(C)c(C)c2c1=O,10.7
18,COc1cccc(NC(=O)C(c2ccccc2)N2CCN(c3ccccn3)CC2)c1 (stereo not shown),5.91
19,COc1ccc(-c2nc(CN3CCN(c4ncnc5ccccc45)CC3)c(C)o2)c(OC)c1,-22.1
20,Cc1cc(Br)ccc1SCC(=O)N1CCN(S(=O)(=O)c2ccccc2)CC1,5.34

row,SMILES,"hERG current change (%, negative = inhibition) at 1uM [%]"
1,O=C(COC(=O)c1cc(=O)c2ccccc2o1)Nc1ccc2ccccc2c1,9.79
2,CC(C)(C)S(=O)(=O)c1cnc(N2CCOCC2)nc1N,11
3,c1ccc2cc3[nH]c(CN4CCCCC4)nc3cc2c1,-14.2
4,CN(NC1OC(=O)c2ccccc21)c1ncc(Cl)cc1C(F)(F)F (stereo not shown),9.3
5,CCOC(=O)c1ccccc1NC(=S)N1CCC(N2CCCCC2)CC1,1.08
6,O=C1CSC2=NCN(c3ccccc3)CN12,18.9
7,c1ccc(CCNc2nc(-c3ccncc3)cs2)cc1,9.61
8,COCc1cc(=O)n2[nH]c(C(F)(F)F)nc2n1,14.1
9,COc1cccc(S(=O)(=O)N2CCN(C(=O)c3ccco3)CC2)c1,7.64
10,Fc1cccc(-c2cc3nc4c(c(N5CCOCC5)n3n2)CCCC4)c1,5.66
11,COc1cccc(NC(=O)CNC(=O)c2ccc([N+](=O)[O-])cc2)c1,7.93
12,CC(NC(=O)C(=O)NN=C1CCCC1)c1ccccc1 (stereo not shown),5.08
13,CCc1ccccc1NC(=O)c1ccc2snnc2c1,1.38
14,CN1C(=O)C(CC(=O)NC2CCCCC2)N(C)C1=O (stereo not shown),12.8
15,COc1cc(/C=C/C(=O)N2CC(C)OC(C)C2)cc(OC)c1OC (stereo not shown),15.4
16,O=C1OC(N2C(=O)CC[C@H]2C(=O)Nc2ccc(F)c(F)c2)c2ccccc21 (stereo partly shown),8.61
17,O=C(Nc1cccc(S(=O)(=O)NC2=NCCC2)c1)c1cnc(Cl)c(Cl)c1,5.12
18,COC(=O)c1cc(CN2C(=O)c3ccccc3C2=O)c(O)c([N+](=O)[O-])c1,9.14
